# Measurements published in the supplement of paper PMC3334620.
# The full ranking holds about 33,000 sequences; the median of “E-score (-0.5 to 0.5)” is about -0.012, and the highest 2% start at about 0.29. The list shows a part of the results.
# Target: T1, Ybr033w (UniProt P38073)
# T1 sequence: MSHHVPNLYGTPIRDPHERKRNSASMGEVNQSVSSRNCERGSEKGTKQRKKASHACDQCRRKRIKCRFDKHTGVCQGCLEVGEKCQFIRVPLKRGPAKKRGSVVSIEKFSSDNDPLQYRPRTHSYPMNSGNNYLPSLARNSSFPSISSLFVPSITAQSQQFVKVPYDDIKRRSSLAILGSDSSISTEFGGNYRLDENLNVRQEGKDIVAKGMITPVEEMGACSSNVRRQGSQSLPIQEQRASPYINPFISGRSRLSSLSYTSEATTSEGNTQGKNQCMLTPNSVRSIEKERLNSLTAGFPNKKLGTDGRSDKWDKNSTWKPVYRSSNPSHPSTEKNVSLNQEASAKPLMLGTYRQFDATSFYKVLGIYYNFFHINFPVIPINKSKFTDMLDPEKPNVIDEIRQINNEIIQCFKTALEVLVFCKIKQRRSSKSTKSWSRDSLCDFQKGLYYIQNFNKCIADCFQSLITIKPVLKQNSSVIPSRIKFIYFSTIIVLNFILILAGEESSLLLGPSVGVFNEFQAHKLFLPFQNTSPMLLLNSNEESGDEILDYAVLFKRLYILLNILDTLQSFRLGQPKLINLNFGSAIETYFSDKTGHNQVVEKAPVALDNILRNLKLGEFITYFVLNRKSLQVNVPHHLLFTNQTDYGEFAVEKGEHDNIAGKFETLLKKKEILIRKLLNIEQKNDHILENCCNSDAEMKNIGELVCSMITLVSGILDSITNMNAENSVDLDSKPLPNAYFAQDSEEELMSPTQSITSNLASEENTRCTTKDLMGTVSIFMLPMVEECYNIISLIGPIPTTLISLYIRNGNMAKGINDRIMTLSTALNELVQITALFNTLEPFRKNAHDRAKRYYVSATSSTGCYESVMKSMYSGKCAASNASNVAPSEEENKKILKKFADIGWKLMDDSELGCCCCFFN
# Assay: PBM E-score (8-mer binding enrichment) (E-score (-0.5 to 0.5)); higher = stronger / more preferred TF binding; most listed sequences are background and not binding sites
# Conditions: protein concentration: 200 nM; construct: GST-full length
# Outline: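 PURExpress in vitro transcription/translation supplied GST-tagged yeast transcription factors, either full-length or DNA-binding domain. Applied at about 100-200 nM to universal all-10-mer Agilent arrays double-stranded by primer extension, the bound protein was detected with fluorescent anti-GST. E-scores, modified Wilcoxon-Mann-Whitney statistics, were given by the Universal PBM Analysis Suite to ungapped eight-base words pooled with their reverse complements after masliner normalisation.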
row,Sequence,PBM E-score
1,GCACCCCC,-0.384
2,AGCAACCT,-0.101
3,CTGACCAA,0.157
4,TGGTCACA,0.0567
5,GGGGAACC,-0.315
6,AGCAGTAC,-0.11
7,CTCTCGTA,0.00252
8,ACCACGTC,-0.0489
9,AGCCCCGC,-0.111
10,GATGCCCC,-0.335
11,AAGTGGCA,-0.121
12,TCGCAACA,-0.0873
13,ATTGACCA,0.0379
14,GATTAGCA,0.0317
15,CTGCCTCA,-0.236
16,GTTAAACA,0.268
17,CGCTAATA,0.0954
18,ACTACCGG,-0.11
19,GCAATGGA,0.06
20,AAACAAGT,0.13
21,CTGGGGCC,-0.29
22,GATCACGA,0.114
23,CCCTACGG,-0.199
24,CGCGTAGC,-0.138

row,Sequence,PBM E-score
1,GACACTAC,-0.0871
2,ATACTCGC,0.0494
3,CTAGAATA,0.134
4,GGGCTCAA,-0.131
5,GGATCCAC,-0.169
6,GATGCCGC,-0.144
7,CAGAGGTA,-0.00719
8,CTAACACC,-0.128
9,GGCGTAGA,-0.0519
10,CGAGCTCG,-0.21
11,AATTCGCA,0.114
12,AAACGGCA,-0.0701
13,ACTAGCGA,0.0237
14,ATACATCA,0.222
15,GTCTTCAA,-0.115
16,CCTTCAGC,-0.203
17,CAGACATA,-0.00613
18,CCGCGGAG,-0.215
19,ATTGAGTG,0.0552
20,GATCAGGC,-0.0722
21,TCCAAGGA,0.139
22,AGTCTAGA,0.0109
23,GATCGACA,0.0395
24,ACCCTCCC,0.0395

row,Sequence,PBM E-score
1,GTCGCAGA,0.091
2,AATCTTGT,0.239
3,CGTGCTAA,0.0693
4,CCATTTGA,0.0264
5,TCTTCGCA,0.063
6,CTTCAGTC,-0.0524
7,AACGAAGG,-0.0656
8,TACTCCAA,0.169
9,ACGTCAAC,0.0705
10,GATGTTCC,0.412
11,ACAGCTCC,0.0221
12,AAATGTAG,-0.00055
13,TACAATCA,0.171
14,AAGAGATA,0.0971
15,ATTCGTAC,0.142
16,GAGCACTA,0.0778
17,ATCGCAAA,0.226
18,GCTAATCA,0.0476
19,AGCGTTGG,-0.308
20,GCTGCCCA,-0.153
21,AAGATGGA,0.0115
22,CGAAGTCA,-0.0609
23,ATTCGCTC,0.136
24,TATTGCCA,0.0304

row,Sequence,PBM E-score
1,GCGCTGGA,0.0122
2,TACCTAGA,-0.0283
3,AAACAAAA,0.228
4,CCCGCAAA,-0.0454
5,ACAAAAAA,0.18
6,AACTAGGG,-0.143
7,CTCGCCTA,0.0619
8,CACTGTCA,-0.0717
9,CGCGAGAA,-0.105
10,CAGGAAAA,0.387
11,CCGTATGC,-0.0287
12,AACCTAAG,0.00876
13,CAGAAGGA,-0.179
14,GTCCATGA,-0.0868
15,GCGCGACC,-0.145
16,AACAGATG,-0.0312
17,TTCTTAAA,0.138
18,CAGTTAAA,0.192
19,AGCCCTCG,-0.314
20,GGAAATCC,-0.00538
21,GACGACGA,-0.219
22,AAAAACCA,0.259
